# PubChem BioAssay AID686978 (National Center for Advancing Translational Sciences (NCATS), 2013)
# Values joined by “and” are separate entries in the source; they are usually repeats but may differ in a detail not shown here. Equal entries are not always repeated. About 64,000 (15%) of roughly 420,000 compounds were called active. This list was built around the results that the source calls inconclusive (neither active nor inactive); the mix of calls is not that of the screen. Calls come from the whole dose curve; as a rule, active = well fitted inhibition curve with a large enough effect; inconclusive = small, poorly fitted or top-dose-only effect; inactive = flat fitted curve, though single readings scatter. Potencies of inconclusive entries are doubtful fits and often do not repeat.
# Assay: qHTS for Inhibitors of human tyrosyl-DNA phosphodiesterase 1 (TDP1): qHTS in cells in absence of CPT; note: nearly all actives have a fitted effect of over 55% in size
# Conditions: DT40 Tdp1-/- hTDP1 cells, no CPT, ATP luminescence, 48 h; activity change, negative = growth inhibition: at 46.2 µM (top of the series) unless noted
# Outline: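 Seeded 400 DT40-hTDP1 cells/well (vehicle DMSO, no 20 nM CPT); pinned compounds; ≥48 hr at 37 °C; CellTiter-Glo luminescence as viability measure.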
# % is set by controls: 0 for no effect and ±100 for the full control effect; potency is the fitted concentration of half-maximal effect; tags give direction and shape of the fitted curve.
Compound,Potency,"activity change, negative = growth inhibition"
c1ccc(C2NCc3ccccc3-n3cccc32)cc1 (stereo not given),"inconclusive: 23.1 µM [inhibitor, single point]",
CCCCOc1ccc(Cn2c(=O)oc3ccccc32)cc1,"inactive and inconclusive: 20.6 µM [inhibitor, single point]",
CC(NC(=O)c1cc(F)ccc1F)c1nnc2n1CCN(Cc1ccc(-c3ccccc3)cc1)CC2 (stereo not given),"inconclusive: 29.1 µM [inhibitor, single point]",
CO[C@H]1[C@@H](O)C[C@H](O[C@H]2[C@@H](O)C[C@H](O[C@H]3[C@@H](O)C[C@H](O[C@H]4CC[C@@]5(C)[C@H](CC[C@@H]6[C@@H]5C[C@@H](O)[C@]5(C)[C@@H](C7=CC(=O)OC7)CC[C@]65O)C4)O[C@@H]3C)O[C@@H]2C)O[C@@H]1C,active: 0.376 µM,
O=C(COc1ccccc1)N1CCN(CC2CC3C=CC2C3)CC1 (stereo not given),"inconclusive: 14.1 µM [inhibitor, single point]",
N#Cc1ccc(CN2CC[C@@]3(CCCNC3)C2)cc1,"inconclusive: 29.1 µM [inhibitor, single point]",
C[C@]12CCCCC1=CC(=O)C1C2CC[C@@]2(C)C1C[C@@H](F)[C@@H]2O (stereo not given in full),active: 16.4 µM,
O=c1[nH]c2ccccc2n1C1CCN(C(c2cccs2)c2nnnn2Cc2ccccc2)CC1 (stereo not given),active: 14.6 µM,
COc1ccc(CN2CCN(c3ncnc4sc5c(c34)CCCC5)CC2)cc1F,active: 5.17 µM,
COc1ccc(CN2C(=O)NC(=O)/C(=C\c3ccco3)C2=O)cc1,"inconclusive: 20.6 µM [inhibitor, single point]",
NCC(=O)c1ccc(Br)cc1,,inactive: 4.55%
Cc1ccccc1N1C(=O)CC(=O)NC1=O,,inactive: 4.39%
CN(C)CC1Oc2ccccc2OC1(O)c1ccccc1 (stereo not given),active: 2.06 µM,
CC(C)c1ccc(Cc2cnc(NC(=O)c3ccc4c(c3)CC(c3ccccc3)OC4=O)s2)cc1 (stereo not given),active: 18.4 µM,
Cc1ccccc1C(=O)Nc1ccc2nc(SCC(=O)N(C)c3ccccc3)sc2c1,active: 14.6 µM,
Cc1cc(C)c(-c2csc(NC(=O)COC(=O)c3ccc4c(c3)OCO4)n2)c(C)c1,active: 25.9 µM,
Cn1c(SCC(=O)Nc2ccccc2F)nc2c([nH]c3ccccc32)c1=O,active: 18.4 µM,
CCC(CC)N1CCN(Cc2nc3ccccc3c(=O)n2-c2ccc(F)cc2)CC1,,inactive: 6.35%
O=C1/C(=C\c2cccnc2)N2CCC1CC2,,inconclusive: -30.6% [inhibitor]
Cc1csc(NC(=O)C2CCCN(S(=O)(=O)c3ccc4c(c3)oc(=O)n4C)C2)n1 (stereo not given),"inconclusive: 11.6 µM [inhibitor, single point]",
